Data published in the supplement of paper PMC3334620.
The full ranking holds about 33,000 sequences; the median of “E-score (-0.5 to 0.5)” is about -0.04, and the highest 2% start at about 0.36. The list shows a part of the results.

target: T1, Hmlalpha2 (UniProt P0CY09); experiment: PBM E-score (8-mer binding enrichment) (E-score (-0.5 to 0.5)); higher = stronger / more preferred TF binding; most listed sequences are background and not binding sites; conditions: protein concentration: 200 nM; construct: GST-full length
T1 sequence: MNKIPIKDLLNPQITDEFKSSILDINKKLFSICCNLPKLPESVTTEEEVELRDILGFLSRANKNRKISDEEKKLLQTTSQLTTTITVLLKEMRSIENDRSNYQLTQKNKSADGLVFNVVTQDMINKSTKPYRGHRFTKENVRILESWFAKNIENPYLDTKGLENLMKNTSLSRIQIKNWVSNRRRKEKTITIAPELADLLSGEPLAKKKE
In short: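 Yeast transcription factors carrying a GST tag, as full-length proteins or DNA-binding domains, were produced by PURExpress in vitro transcription/translation. About 100-200 nM protein was applied to universal all-10-mer Agilent arrays, double-stranded by primer extension on fresh or once-stripped slides. Bound protein was detected with fluorescent anti-GST, and scans were normalised with masliner. The Universal PBM Analysis Suite gave each ungapped eight-base word, pooled with its reverse complement, an E-score, a modified Wilcoxon-Mann-Whitney statistic.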

Row | Sequence | PBM E-score
1 | CAGTATAC | 0.11
2 | AACGAATG | -0.0428
3 | CAAATACG | 0.177
4 | CGGGGTTC | -0.335
5 | GGGGGAAA | -0.291
6 | CTAAATGC | -0.0507
7 | AAAGGGAA | -0.0413
8 | CAACAGAA | 0.0264
9 | ATTAGAAG | -0.08
10 | AGGTTGCA | 0.149
11 | ATCCGAGG | -0.139
12 | AAATCGAA | -0.0852
13 | CAGACAAG | -0.0236
14 | GATGGTTA | -0.0146
15 | CCAGGAGG | -0.191
16 | CAGGCCAG | -0.243
17 | ATGCGAAG | 0.0105
18 | CCAAAATA | 0.0469
19 | AATCGATG | 0.177
20 | AAAGGTAC | 0.0621
21 | TCCCCCGA | -0.371
22 | ATACTGAG | 0.114
23 | CATGTCAC | 0.245
24 | AGACTGCA | -0.13
25 | AGCAGGTC | -0.0501

Row | Sequence | PBM E-score
26 | CCAGGATC | -0.238
27 | ATCACTCG | -0.119
28 | AGCTGCAG | -0.168
29 | CCTAAAGG | -0.265
30 | GTTTTAGA | 0.0961
31 | CATCTGTC | -0.311
32 | CCAGTCCA | -0.37
33 | CCCAAATC | -0.104
34 | AACAGGAA | 0.208
35 | ATGTTAGA | 0.358
36 | CTATTATA | 0.0386
37 | CCTCCGAC | -0.259
38 | GGAGCGCC | -0.443
39 | CCACTACC | -0.291
40 | CCCGAGCC | -0.278
41 | CTAACACA | 0.376
42 | GCTCCTTA | -0.172
43 | TCGCCCCA | -0.165
44 | AACTACGA | 0.167
45 | AAGCACTA | 0.107
46 | CACTAGGA | -0.225
47 | TATTGGCA | 0.0557
48 | GTAGATTA | 0.343
49 | CTAGACAC | 0.185
50 | CCTAATTC | -0.0244

Row | Sequence | PBM E-score
51 | ATAGGCTA | -0.13
52 | AAAAACCG | 0.11
53 | TGCAGGAA | -0.0766
54 | AAGACGGA | -0.155
55 | CTCGACCC | -0.0619
56 | TATCTGAA | -0.064
57 | GAAGAGAA | -0.234
58 | ATAGGAGC | -0.0655
59 | AATTTCGA | 0.113
60 | AACAGTTC | 0.0308
61 | CTCTTTGC | -0.182
62 | GTTAACAA | 0.366
63 | GGACCCCA | -0.164
64 | ACCTCTAC | 0.072
65 | CGGTGCAG | -0.207
66 | CAACTTTC | -0.149
67 | GAGAGGTA | -0.241
68 | CGTAACCC | 0.0355
69 | AATACTTC | 0.021
70 | ACATCGTC | 0.0921
71 | CATTGTCC | 0.0221
72 | GCGCCAAA | -0.182
73 | GTCGCACA | -0.0117
74 | GCCTCCGC | -0.217
75 | ACTCGACG | 0.16

Row | Sequence | PBM E-score
76 | CCTCGGAC | -0.315
77 | GCCGTCCC | -0.192
78 | CCGATTAA | 0.106
79 | CATATGGG | -0.201
80 | AGATGCCT | 0.00433
81 | CAAATCAC | -0.0967
82 | AGTAAACG | 0.156
83 | CGATGAAA | 0.0433
84 | AGGGGCGG | -0.305
85 | ATAGCTGG | -0.121
86 | ACCTAGCG | 0.0123
87 | CAATAGGG | -0.0586
88 | CGAGTCCC | -0.234
89 | ACATTGTC | 0.275
90 | AAACCCAC | 0.0656
91 | CCGCTGTC | -0.123
92 | CACGTAAG | 0.244
93 | AAGCCTGC | -0.0985
94 | CCAGCAAA | -0.109
95 | TATACCGA | -0.0588
96 | ATTGACAA | 0.269
97 | AAATACTA | 0.16
98 | AAATTTGC | -0.00054
99 | GTCTGGTA | -0.079
100 | TCTACCCA | -0.108

Row | Sequence | PBM E-score
101 | GGCTCGAA | -0.149
102 | GATGAAGC | -0.157
103 | GAGGACCC | -0.195
104 | ATAATCAG | 0.133
105 | CATGGGTA | 0.129
106 | CGTATGAC | 0.222
107 | AAAAATTC | 0.179
108 | ACACGTTA | 0.408
109 | AAAAGCAC | -0.209
110 | ACCATAGC | -0.191
111 | TAACAACA | 0.335
112 | CTTGTTGC | 0.189
113 | ATTAGCCG | -0.0931
114 | CACGTGCG | 0.133
115 | CACCTCCA | -0.063
116 | ATGTAGAC | 0.391
117 | ATAGTTAG | -0.123
118 | GTATTGTA | 0.322
119 | TAGGATGA | -0.088
120 | AGCTCTAA | -0.136
121 | CTCAAGAG | -0.366
122 | AGACACCT | -0.146
123 | CACTAATA | 0.146
124 | AGCATGCA | 0.023
125 | CCTTACCG | -0.0286

Row | Sequence | PBM E-score
126 | ATATTGTA | 0.184
127 | CACACGGA | 0.0896
128 | CTGCGACA | -0.0456
129 | GGGCTACC | -0.243
130 | ATTGGACA | 0.0505
131 | CAATGATC | -0.093
132 | ATAGTACG | -0.0111
133 | AAGCCAAG | -0.228
134 | CATCGATG | 0.268
135 | ATACCAGG | -0.0417
136 | AGATTAAC | 0.188
137 | CCACGGGC | -0.165
138 | CTCTCAGC | -0.149
139 | AGTTTGAA | -0.0108
140 | CCCGCTCG | -0.199
141 | ACAATTGA | 0.137
142 | ACGCAGAA | 0.152
143 | GTTTAAGA | 0.014
144 | ACCGCAGC | -0.316
145 | CGCGGTCA | -0.134
146 | ACTTACAG | 0.134
147 | ACTTAGTA | 0.217
148 | GAACCTAC | 0.0683
149 | ACATCGGG | -0.119
150 | AAGCCTGA | -0.241

Row | Sequence | PBM E-score
151 | GTACTAGA | 0.229
152 | GCTGACAA | 0.165
153 | AAAATCCC | -0.173
154 | CTTGCAAC | 0.228
155 | GCCGCAAC | -0.0377
156 | ATACAGAG | 0.0854
157 | AGTACGTG | 0.154
158 | GGTGCCCA | -0.178
159 | ATCAACGC | 0.316
160 | CTCAGGCA | -0.243
161 | AGAAGAAG | -0.165
162 | CCAGCTAG | -0.00523
163 | GATAGCGA | -0.126
164 | CCTGTGCC | -0.221
165 | CTGGTCCA | -0.174
166 | ATACCGCA | -0.0973
167 | CCGATGCA | -0.155
168 | AATACGAT | 0.238
169 | CCGGATCA | -0.0165
170 | GTTGGCGA | -0.0755
171 | CTCTACTA | 0.0969
172 | ATACAGGG | 0.0701
